Test [1] deals with T1, IL-11_(Δ10/Mutein)/IL-11Rα_(D1-D3)/gp130_(D1-D3) complex (human) (UniProt P20809+Q14626+P40189). The test can be described thus: SAXS; in-line size exclusion (Superdex 200 5/150 Increase), TBS pH 8.5, 0.2% sodium azide; fit of models with CRYSOL; both purified. A general note: SEC sorts molecules by how far they enter the pores of the column.
Test [2] deals with T1, IL-11_(Δ10/Mutein)/IL-11Rα_(D1-D3)/gp130_(D1-D3) complex (human). Put plainly: SEC-MALS; Zenix-C SEC-300 column, 20 mM Tris, 150 mM sodium chloride pH 8.5, ~2 mg/mL applied; both purified.
Test [3] has the same target. Put plainly: AUC; sedimentation velocity, 50,000 rpm, 20 °C, c(s) model with floating frictional ratio (SEDFIT); both purified.
The target of test [4] is T2, IL-11Δ10/IL-11Rα_(D1-D3) binary complex (human, UniProt P20809 32-199; Q14626 23-319).
T2 construct: IL-11, human, IL-11Δ10, as m1; numbers count on: the mature protein; IL-11Rα, human, D1-D3, as m8; m1 with m8; also called IL-11Rα_(D1-D3)/IL-11Δ10 binary complex; binary IL-11/IL-11Rα complex; source: formed from the purified proteins (IL-11Δ10 from E. coli, IL-11Rα_(D1-D3) from Sf21); in ITC by titrating the cytokine into IL-11Rα; not shown: His6, N-terminal, cleaved; His8, N-terminal, cleaved; …
T2 sequence 1: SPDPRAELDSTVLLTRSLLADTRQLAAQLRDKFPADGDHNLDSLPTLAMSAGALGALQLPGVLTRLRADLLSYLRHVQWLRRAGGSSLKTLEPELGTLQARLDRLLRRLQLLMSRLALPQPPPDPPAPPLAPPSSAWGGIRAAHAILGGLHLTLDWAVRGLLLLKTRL
T2 sequence 2: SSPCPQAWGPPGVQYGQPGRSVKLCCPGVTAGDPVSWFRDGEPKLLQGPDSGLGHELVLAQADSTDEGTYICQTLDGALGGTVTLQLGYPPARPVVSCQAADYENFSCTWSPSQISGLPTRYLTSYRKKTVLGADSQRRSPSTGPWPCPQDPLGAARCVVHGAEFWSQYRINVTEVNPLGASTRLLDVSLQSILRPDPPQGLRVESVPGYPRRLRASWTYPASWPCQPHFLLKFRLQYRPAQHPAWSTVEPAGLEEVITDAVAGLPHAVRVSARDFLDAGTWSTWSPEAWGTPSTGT
The test can be described thus: AUC; sedimentation equilibrium at three speeds, single-species analysis (SEDPHAT), relative molecular mass M*; complexes size exclusion purified before; both purified.

A further test has as its target T3, IL-11RαEC (human) (UniProt Q14626).
T3 sequence (chain, N-linked glycans (N105, N172 seen in the structures)): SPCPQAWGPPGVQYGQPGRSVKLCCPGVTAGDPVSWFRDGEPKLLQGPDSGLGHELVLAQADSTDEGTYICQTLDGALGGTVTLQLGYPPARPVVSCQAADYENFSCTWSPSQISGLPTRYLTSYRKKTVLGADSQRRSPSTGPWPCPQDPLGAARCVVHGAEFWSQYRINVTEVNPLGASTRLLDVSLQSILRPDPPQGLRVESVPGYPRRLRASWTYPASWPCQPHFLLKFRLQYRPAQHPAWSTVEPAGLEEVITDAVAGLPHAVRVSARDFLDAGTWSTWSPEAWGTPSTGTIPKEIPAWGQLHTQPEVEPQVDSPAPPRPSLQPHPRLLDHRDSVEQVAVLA
Put plainly: crystal structure; IL-11FL/IL-11RαEC/gp130_(D1-D3) complex, equimolar mix purified by gel filtration, crystals at 20 °C; anisotropic data to 3.8 Å, three hexamers in the asymmetric unit; both purified.

Test [5] deals with T2, IL-11Δ10/IL-11Rα_(D1-D3) binary complex. Put plainly: SAXS; in-line size exclusion (Superdex 200 5/150 Increase), TBS pH 8.5, 0.2% sodium azide; fit of models with CRYSOL; both purified.
Test [6] addresses T4, IL-11_(Δ10/Mutein) (human) (UniProt P20809).
T4 sequence: T2 sequence 1 with A48P, M49A, S50I, A51D, G52Y, W137A
The description is as above.

Test [7] addresses T5, IL-11_(Δ10/Mutein)/IL-11Rα_(D1-D3) binary complex (human) (UniProt P20809+Q14626).
T5 sequence 1: T2 sequence 1 with A48P, M49A, S50I, A51D, G52Y, W137A
T5 sequence 2: T2 sequence 2
The test is described as above.

The next test has as its target T6, IL-11Rα_(D1-D3) (human) (UniProt Q14626).
T6 sequence (chain, N-linked glycans (N105, N172 seen in the structures)): T2 sequence 2
Put plainly: cryo-EM structure; IL-11Δ10/IL-11Rα_(D1-D3)/gp130_(D1-D3) complex, equimolar mix, size exclusion purified in TBS pH 8.0, 0.5 mg/mL on grids; C2 symmetry, 3.5 Å; both purified.

A further test has as its target T7, IL-11Δ10 (human) (UniProt P20809).
T7 sequence: T2 sequence 1
Described as above.

Test [8] concerns the target T2, IL-11Δ10/IL-11Rα_(D1-D3) binary complex. The test can be described thus: SEC-MALS; Zenix-C SEC-300 column, 20 mM Tris, 150 mM sodium chloride pH 8.5, ~2 mg/mL applied; both purified.
The target of test [9] is T5, IL-11_(Δ10/Mutein)/IL-11Rα_(D1-D3) binary complex (human). Described as above.
For test [10], the target named is T2, IL-11Δ10/IL-11Rα_(D1-D3) binary complex. Put plainly: AUC; sedimentation velocity, 50,000 rpm, 20 °C, c(s) model with floating frictional ratio (SEDFIT); both purified.
In test [11] the target is T8, IL-11_(Δ10/W147A)/IL-11Rα_(D1-D3) binary complex (human) (UniProt P20809+Q14626).
T8 sequence 1: T2 sequence 1 with W137A
T8 sequence 2: T2 sequence 2
The test is described as above.

For test [12], the target named is T5, IL-11_(Δ10/Mutein)/IL-11Rα_(D1-D3) binary complex (human). Described as above.
Test [13] has as its target IL-11_(Δ10/W147A) (human) (UniProt P20809). Described as above.
In test [14] the target is T4, IL-11_(Δ10/Mutein) (human). The test is described as above.

Changes are numbered by the printed parent chain. Numbers in names are those of the source. No constants are given. Whether binding was seen depends on the method and setting. Some results given as binding are weak or reduced against the parent protein; the word gives no strength.

Turning to “IL-11_(Δ10/Mutein)/IL-11Rα_(D1-D3)/gp130_(D1-D3) complex (from UniProt P20809 32-199; Q14626 23-319; P40189 22-325)”, the binding result in test [1], in [2] and in [3] was “no binding” in each case.

B1: gp130_(D1-D3) (receptor, human)
chain: GELLDPCGYISPESPVVQLHSNFTAVCVLKEKCMDYFHVNANYIVWKTNHFTIPKEQYTIINRTASSVTFTDIASLNIQLTCNILTFGQLEQNVYGITIISGLPPEKPKNLSCIVNEGKKMRCEWDGGRETHLETNFTLKSEWATHKFADCKAKRDTPTSCTVDYSTVYFVNIEVWVEAENALGKVTSDHINFDPVYKVKPNPPHNLSVINSEELSSILKLTWTNPSIKSVIILKYNIQYRTKDASTWSQIPPEDTASTRSSFTVQDLKPFTEYVFRIRCMKEDGKGYWSDWSEEASGITYEDR
modifications: N-linked glycans (N21, N61, N135 seen in the structures)
notes: glycoprotein 130 (gp130), human, domains D1-D3; Secreted with a honeybee-melittin signal peptide; not shown: His8, N-terminal, cleaved
Turning to B1, the binding result (in test [4]; with IL-11RαEC (human); in [5]; in [6]; in [7]; with IL-11Rα_(D1-D3) (human)) was “binds” throughout. Besides, the binding entry (in the test with IL-11Δ10 (human); in test [8]; in test [9]; in [10]; in [11]; in test [12]) was “binds” each time.

B2: IL-11_(Δ10/W147A) (ligand, human)
chain: T2 sequence 1 with W137A
notes: interleukin 11 (IL-11), human, IL-11Δ10 with W147A; numbers count on: the mature protein; also called IL-11 W147A; W147A mutant; not shown: His6, N-terminal, cleaved
Regarding B2, the binding entry in test [13] is recorded as “no binding”.

B3: IL-11_(Δ10/Mutein) (ligand, human)
chain: T2 sequence 1 with A48P, M49A, S50I, A51D, G52Y, W137A
notes: interleukin 11 (IL-11), human, IL-11Δ10 with W147A and AB loop residues 58-62 AMSAG changed to PAIDY; numbers count on: the mature protein; Parent construct IL-11Δ10; also called IL-11 Mutein; not shown: His6, N-terminal, cleaved
Turning to B3, the binding result in test [14] is given as “no binding”.

Source of the values: PMC10662374, “Structures of the interleukin 11 signalling complex reveal gp130 dynamics and the inhibitory mechanism of a cytokine variant” (Nature Communications, 2023).
